{"source": "PubChem BioAssay AID504845", "about": "(National Center for Advancing Translational Sciences (NCATS), 2011)", "note": "About 150 (0.038%) of roughly 390,000 compounds were called active. Inconclusive results, whose numbers are uncertain, are shown with a selection of clear calls. Calls follow the shape of the dose curve; as a rule, active = well fitted inhibition curve with a large enough effect; inconclusive = small, poorly fitted or top-dose-only effect; inactive = no such curve, though single readings can be large or run the other way. Potencies of inconclusive entries are doubtful fits and often do not repeat. % is scaled to controls: 0 for no effect and ±100 for the full control effect; potency is read from the fitted curve at half-maximal effect; tags tell the direction and shape of the fitted curve."}
{"molecular_target": "Regulator of G-protein signaling 4 (Homo sapiens) (UniProt P49798)", "sequence (P49798 whole entry, looked up)": "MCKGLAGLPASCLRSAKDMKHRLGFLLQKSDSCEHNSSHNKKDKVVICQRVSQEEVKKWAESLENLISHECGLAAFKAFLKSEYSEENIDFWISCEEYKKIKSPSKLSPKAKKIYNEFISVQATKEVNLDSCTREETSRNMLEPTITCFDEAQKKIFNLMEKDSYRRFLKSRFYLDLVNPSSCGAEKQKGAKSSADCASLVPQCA", "experiment": "Inhibitors of Regulator of G Protein Signaling (RGS) 4: qHTS; also: nearly all actives have a fitted effect of over 75% in size", "conditions": "Transcreener GDP fluorescence polarization, RGS4-accelerated GTP hydrolysis; series mostly up to 114 µM; activity change, negative = inhibition: at the top concentration", "in_short": "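MLSMR compounds (23 nl, pin-transferred) preincubated 10 min at room temperature with a 500nM (2x) first reagent, then RGS4 at 900nM (2x) plus Transcreener GDP mix added; fluorescence polarization (620/688 nm) read before and after 90 min at 30 °C.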"}
{"molecule": "CCCCCn1c(=O)c(C(=O)Nc2ccccc2S(N)(=O)=O)c(O)c2ccccc21", "activity change, negative = inhibition": "inactive: 17.2%"}
{"molecule": "C[C@H](CCC(=O)O)[C@H]1CC[C@H]2[C@H]3C(CC[C@]12C)[C@@]1(C)CC[C@@H](O)C[C@H]1C[C@H]3O", "note": "(stereo partly specified)", "Potency": "inconclusive: 8.44 µM [inhibitor, partial curve, poor fit]"}
{"molecule": "NCCc1cc(O)c(O)cc1O", "Potency": "inconclusive: 89.1 µM [inhibitor, partial curve, poor fit]"}
{"molecule": "CCOC(=O)c1cccc(NC(=O)c2c(O)[nH]c(=O)[nH]c2=O)c1", "Potency": "inconclusive: 17.8 µM [inhibitor, partial curve, poor fit]"}
{"molecule": "C[C@]12Cc3cn4c(nc3C=C1CCC1C2CC[C@@]2(C)[C@H]1CC[C@@]2(O)C#N)nc1ccccc14", "note": "(stereo partly specified)", "Potency": "inconclusive: 16.8 µM [inhibitor, partial curve, poor fit]"}
{"molecule": "COCCNC(=O)Cn1cc(/C=C2\\C(=O)NC(=O)N(c3ccccc3F)C2=O)c2ccccc21", "Potency": "inconclusive: 79.4 µM [inhibitor, partial curve, poor fit]"}
{"molecule": "CC(C)(C)c1ccc(C(=O)C2CCCN(C3CCC3)C2)cc1", "note": "(stereo unspecified)", "activity change, negative = inhibition": "inactive: -8.89%"}
{"molecule": "COC(=O)c1ccc(C(c2c(C)[nH][nH]c2=O)c2c(C)[nH][nH]c2=O)cc1", "Potency": "inconclusive: 79.4 µM [inhibitor, partial curve, poor fit]"}
{"molecule": "O=C(N=Nc1c(O)[nH]c(=O)[nH]c1=O)C1COc2cc3ccccc3cc2O1", "note": "(stereo unspecified)", "Potency": "inconclusive: 28.2 µM [inhibitor, full curve, poor fit]"}
{"molecule": "CN1C[C@H](C(=O)N[C@]2(C)O[C@@]3(O)[C@@H]4CCCN4C(=O)[C@H](Cc4ccccc4)N3C2=O)C[C@@H]2c3cccc4[nH]cc(c34)C[C@H]21", "Potency": "inconclusive: 0.267 µM [inhibitor, full curve, poor fit]"}
{"molecule": "CSc1ncc(/C=C2/C(=O)NC(=O)N(c3ccc(C)cc3)C2=O)cn1", "Potency": "inconclusive: 50.1 µM [inhibitor, partial curve, poor fit]"}
{"molecule": "CN(C)c1ccc(/C=C2/C(=O)NC(=O)N(CCc3ccc(F)cc3)C2=O)cc1", "Potency": "inconclusive: 35.5 µM [inhibitor, full curve, poor fit]"}
{"molecule": "CC(C)(C)c1ccc(O)c(N=Cc2c(O)ccc3ccccc23)c1", "Potency": "inconclusive: 89.1 µM [inhibitor, single point]"}
{"molecule": "CC(=O)OC1CN2CCC1CC2", "note": "(stereo unspecified)", "Potency": "inconclusive: 0.0423 µM [inhibitor, partial curve, poor fit]"}
{"molecule": "Oc1cc2c(cc1CN1CCN(c3ccccc3)CC1)CCC2", "activity change, negative = inhibition": "inactive: 24.2%"}
{"molecule": "O=C1NC(=O)N(c2ccccc2F)C(=O)/C1=C/c1cn(CC(=O)N2CCOCC2)c2ccccc12", "Potency": "inconclusive: 50.1 µM [inhibitor, partial curve, poor fit]"}
{"molecule": "CCN(c1ccccc1)S(=O)(=O)c1ccc(NC(=O)c2cc(=O)c3ccccc3o2)cc1", "Potency": "inconclusive: 20 µM [inhibitor, full curve, poor fit]"}
{"molecule": "COc1cc2c3cc1Oc1cc(ccc1O)C[C@@H]1c4c(cc(OC)c(O)c4Oc4ccc(cc4)C[C@@H]3N(C)CC2)CC[N+]1(C)C", "Potency": "inconclusive: 37.7 µM [inhibitor, partial curve, poor fit]"}
{"molecule": "CC(CCc1ccccc1)NC(C)C(O)c1ccc(O)cc1", "note": "(stereo unspecified)", "Potency": "inconclusive: 37.7 µM [inhibitor, single point]"}
{"molecule": "CCOc1ccc(N2C(=O)NC(=O)/C(=C\\c3ccccc3[N+](=O)[O-])C2=O)cc1", "Potency": "inconclusive: 31.6 µM [inhibitor, full curve, poor fit]"}
{"molecule": "O=C(CN1CCCC1)Nc1ccc(Cl)cc1C(=O)c1ccccc1", "activity change, negative = inhibition": "inactive: -7.8%"}
{"molecule": "Cc1nn(Cc2ccccc2)c(C)c1C=C1C(=O)NC(=S)NC1=O", "Potency": "inconclusive: 31.6 µM [inhibitor, full curve, poor fit]"}
{"molecule": "NCCCC(=O)OC1N=C(c2ccccc2Cl)c2cc(Br)ccc2NC1=O", "note": "(stereo unspecified)", "Potency": "inconclusive: 50.1 µM [inhibitor, partial curve, poor fit]"}
{"molecule": "CNC(=S)N/N=C1\\C2CN3CCN(C2)CC1(c1ccccc1)C3", "Potency": "inconclusive: 89.1 µM [inhibitor, single point]"}
{"molecule": "N[C@@H](Cn1ccc(=O)n(Cc2ccc(C(=O)O)cc2)c1=O)C(=O)O", "Potency": "active: 8.44 µM"}
{"molecule": "CC(C)Cc1nc(N2CCNCC2)c(C#N)c2c1CCC2", "activity change, negative = inhibition": "inactive: 13.2%"}
{"molecule": "Oc1ccc2c3c1O[C@H]1c4[nH]c5c(c4C[C@@]4(O)[C@@H](C2)N(CC2CC2)CC[C@]314)C[C@@]1(O)[C@H]2Cc3ccc(O)c4c3[C@@]1(CCN2CC1CC1)[C@H]5O4", "Potency": "inconclusive: 37.7 µM [inhibitor, partial curve, poor fit]"}
{"molecule": "FC(F)(F)c1ccc(CN2CCNCC2)cc1", "Potency": "inconclusive: 50.1 µM [inhibitor, partial curve, poor fit]"}
{"molecule": "CCCCN1C(=O)/C(=C/c2ccc(N(C)C)cc2)C(=O)N(Cc2ccco2)C1=O", "Potency": "inconclusive: 79.4 µM [inhibitor, partial curve, poor fit]"}
{"molecule": "Cc1cc(/C=C2/C(=O)NC(=O)N(Cc3ccco3)C2=O)c(C)n1-c1ccccc1", "Potency": "inconclusive: 17.8 µM [inhibitor, full curve, poor fit]"}
{"molecule": "Cc1ccc2nc(-c3ccncc3)cc(C(=O)N3CCC4(CC3)OCCO4)c2c1", "activity change, negative = inhibition": "inactive: 32.4%"}
{"molecule": "CC(=O)C(Sc1ncnc2c1nnn2-c1ccc(F)cc1)C(=O)N(C)C", "note": "(stereo unspecified)", "Potency": "inconclusive: 17.8 µM [inhibitor, full curve, poor fit]"}
{"molecule": "O=C1NC(=S)N(C2CC2)C(=O)/C1=C/c1ccc2c(c1)CCN2CCCCl", "Potency": "inconclusive: 22.4 µM [inhibitor, full curve, poor fit]"}
{"molecule": "C[N+]1(C)[C@@H]2CC[C@H]1CC(OC(=O)C(c1ccccc1)c1ccccc1)C2", "note": "(stereo partly specified)", "Potency": "inconclusive: 56.2 µM [inhibitor, partial curve, poor fit]"}
{"molecule": "O=C(O)c1cccc2nc3ccccc3nc12", "activity change, negative = inhibition": "inactive: -8.79%"}
{"molecule": "N#CC1c2ccccc2-n2nncc2CN1Cc1cc(Cl)cc(Cl)c1", "note": "(stereo unspecified)", "Potency": "inconclusive: 50.1 µM [inhibitor, partial curve, poor fit]"}
